Results: the supplement of paper PMC7125110
± gives the standard error. Variants at the background level are over-represented here.

B1: glmS ribozyme (parent)
chain: AUAAAAGCGCCAGAACUACAGAAAUGUAGUUGACGAGGAGGAGGUUUAUCGAAUUUUCGGCGGAUGCCUCCAAA

What was measured:
Settings in all cases: with glucosamine-6-phosphate
glucosamine-6-phosphate [1] = variants of: B1; assay: self-cleavage kobs at 160 uM GlcN6P; higher = faster cleavage; RNA array
Procedure, shortened: (§1)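 Sequenced MiSeq chips were the platform: E. coli RNA polymerase transcribed barcoded ribozyme variants on them in situ, and a hybridised Cy3 probe tracked these at 37 °C. After glucosamine-6-phosphate (40 μM to 10 mM) in HEPES/KCl/Mg(OAc)2 buffer was flowed in, tiles were imaged over ~14 h. Signals normalised to baseline and to non-cleaving reference variants were reduced to per-tile medians and fit to one- or two-exponential decays to obtain kobs. kcat and KM were derived through weighted Michaelis–Menten fits across concentrations.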

glucosamine-6-phosphate [2] = variants of: B1; assay: self-cleavage kobs at 2500 uM GlcN6P; higher = faster cleavage; RNA array
Procedure, shortened: as §1

glucosamine-6-phosphate [3] = variants of: B1; assay: self-cleavage kobs at 640 uM GlcN6P; higher = faster cleavage; RNA array
Procedure, shortened: as §1

glucosamine-6-phosphate [4] = variants of: B1; assay: self-cleavage kobs at 10000 uM GlcN6P; higher = faster cleavage; RNA array
Procedure, shortened: as §1

Variant | self-cleavage kobs at 160 uM GlcN6P (glucosamine-6-phosphate [1]) | self-cleavage kobs at 2500 uM GlcN6P (glucosamine-6-phosphate [2]) | self-cleavage kobs at 640 uM GlcN6P (glucosamine-6-phosphate [3]) | self-cleavage kobs at 10000 uM GlcN6P (glucosamine-6-phosphate [4])
U47C G60U C71U | < 1e-05 s⁻¹ | < 1e-05 s⁻¹ | – | –
A39C U47G | – | – | 0.000286 ± 5.5e-05 s⁻¹ | –
G7C A12C A14U | – | < 1e-05 s⁻¹ | – | < 1e-05 s⁻¹
G7C A15U G44C U56A C71A | – | < 1e-05 s⁻¹ | – | –
C11A A12C C61U | < 1e-05 s⁻¹ | – | – | –
A6C U55G | < 1e-05 s⁻¹ | – | – | –
A6G C34A G35U A39C A48U U55A C58G | – | < 1e-05 s⁻¹ | – | –
A42U A52C G60C G63U C67A C70G | – | – | < 1e-05 s⁻¹ | –
A6C G38A G40C G62C U65C | – | < 1e-05 s⁻¹ | – | –
A6U C8U A14G G62U | – | < 1e-05 s⁻¹ | – | –
A33C A48U G62C C70A | < 1e-05 s⁻¹ | < 1e-05 s⁻¹ | – | –
U31C G44C | < 1e-05 s⁻¹ | – | – | –
A6U G38U U47C | – | < 1e-05 s⁻¹ | – | –
G38U A52G U56A G60U | – | – | < 1e-05 s⁻¹ | –
G38C G43U U69A | – | < 1e-05 s⁻¹ | < 1e-05 s⁻¹ | –
A6G G41U G60U | – | < 1e-05 s⁻¹ | – | –
G37U G43U C67U | – | < 1e-05 s⁻¹ | < 1e-05 s⁻¹ | < 1e-05 s⁻¹
A6U G41C C68U | < 1e-05 s⁻¹ | < 1e-05 s⁻¹ | – | –

Variant | self-cleavage kobs at 160 uM GlcN6P (glucosamine-6-phosphate [1]) | self-cleavage kobs at 2500 uM GlcN6P (glucosamine-6-phosphate [2]) | self-cleavage kobs at 640 uM GlcN6P (glucosamine-6-phosphate [3]) | self-cleavage kobs at 10000 uM GlcN6P (glucosamine-6-phosphate [4])
U47A G59C C71A | – | – | < 1e-05 s⁻¹ | –
C8A C11U U55A | < 1e-05 s⁻¹ | < 1e-05 s⁻¹ | – | –
A36U G44C C61U C71A | – | – | < 1e-05 s⁻¹ | –
G37A A39G G51U C71G | < 1e-05 s⁻¹ | – | – | –
A42U C50U C70G | – | < 1e-05 s⁻¹ | < 1e-05 s⁻¹ | –
G40C U55C U69A | < 1e-05 s⁻¹ | – | – | –
A36C G37C U46A A48G C70G | – | – | < 1e-05 s⁻¹ | –
G13C G66U | < 1e-05 s⁻¹ | – | – | –
A39U U49C C68G | – | < 1e-05 s⁻¹ | < 1e-05 s⁻¹ | < 1e-05 s⁻¹
G7U A52G U56A C61A | – | < 1e-05 s⁻¹ | – | –
G7A G13A C16G | – | < 1e-05 s⁻¹ | – | < 1e-05 s⁻¹
A6G C8A U31C G62C | – | < 1e-05 s⁻¹ | – | –
G38C G44U U55A C68G | – | – | < 1e-05 s⁻¹ | –
A6C G7A C50U | < 1e-05 s⁻¹ | – | – | –
A36G G66U | – | < 1e-05 s⁻¹ | < 1e-05 s⁻¹ | < 1e-05 s⁻¹
A36G G43A G59U | – | < 1e-05 s⁻¹ | < 1e-05 s⁻¹ | –
G41C G63U | – | – | < 1e-05 s⁻¹ | < 1e-05 s⁻¹
G38C G40U | – | < 1e-05 s⁻¹ | < 1e-05 s⁻¹ | < 1e-05 s⁻¹
